# Results as given in US11413337B2, “Peptide conjugated particles for the treatment of inflammation” (Northwestern University, priority 2012, dated 2022).
# System: spontaneous Type 1 Diabetes
# Experiment: spontaneous type 1 diabetes in NOD mice
# Conditions: over 300 days; iv at 6, 8, and 10 weeks of age; diabetes = blood glucose >250 mg/dL
row,Substance,percentage of mice that did not develop diabetes
1,"BSA coupled PLG particles: BSA coupled PLG particles, control [reference compound]",22.7%
2,insulin coupled PLG particles: insulin coupled PLG particles,69.6%
